The target of experiment [1] is T1, KCBP_(12–923) (Arabidopsis thaliana) (UniProt Q9FHN8).
T1 sequence: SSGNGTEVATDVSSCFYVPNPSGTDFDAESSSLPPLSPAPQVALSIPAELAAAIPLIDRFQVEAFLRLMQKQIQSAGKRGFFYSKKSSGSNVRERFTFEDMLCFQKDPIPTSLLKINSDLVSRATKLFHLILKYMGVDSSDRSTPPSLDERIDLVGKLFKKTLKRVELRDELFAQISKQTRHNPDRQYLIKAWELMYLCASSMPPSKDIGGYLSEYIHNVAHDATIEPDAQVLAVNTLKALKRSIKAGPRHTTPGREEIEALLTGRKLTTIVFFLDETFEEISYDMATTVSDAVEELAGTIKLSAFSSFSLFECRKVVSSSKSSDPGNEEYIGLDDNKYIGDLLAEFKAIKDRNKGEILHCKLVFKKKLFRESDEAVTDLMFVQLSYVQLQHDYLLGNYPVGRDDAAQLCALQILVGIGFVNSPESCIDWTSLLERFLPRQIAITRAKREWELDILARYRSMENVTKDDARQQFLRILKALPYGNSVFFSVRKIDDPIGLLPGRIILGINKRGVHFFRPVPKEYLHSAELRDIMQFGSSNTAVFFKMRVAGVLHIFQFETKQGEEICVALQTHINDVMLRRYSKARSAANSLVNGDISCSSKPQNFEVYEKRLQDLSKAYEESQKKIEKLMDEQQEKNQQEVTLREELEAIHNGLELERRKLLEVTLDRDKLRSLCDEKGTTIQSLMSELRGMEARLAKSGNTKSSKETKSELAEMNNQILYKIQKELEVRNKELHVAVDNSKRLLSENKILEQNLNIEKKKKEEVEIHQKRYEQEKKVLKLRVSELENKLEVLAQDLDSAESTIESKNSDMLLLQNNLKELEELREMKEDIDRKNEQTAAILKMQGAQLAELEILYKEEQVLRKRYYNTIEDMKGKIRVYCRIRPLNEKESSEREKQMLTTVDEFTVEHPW
Kind of experiment: two-hybrid; pairwise: pGBKT7 (GAL4 DNA-binding domain) and pGADT7 (GAL4 activation domain) plasmids in yeast Y187, SD-Leu-Trp; filter lifts for beta-galactosidase with X-Gal (blue colour); negatives monitored for up to 24 h, PERK8 and -9 transformants for shorter times because of some background activity.

In experiment [2] the target is T2, KCBP_(12–622) (Arabidopsis thaliana) (UniProt Q9FHN8).
T2 sequence: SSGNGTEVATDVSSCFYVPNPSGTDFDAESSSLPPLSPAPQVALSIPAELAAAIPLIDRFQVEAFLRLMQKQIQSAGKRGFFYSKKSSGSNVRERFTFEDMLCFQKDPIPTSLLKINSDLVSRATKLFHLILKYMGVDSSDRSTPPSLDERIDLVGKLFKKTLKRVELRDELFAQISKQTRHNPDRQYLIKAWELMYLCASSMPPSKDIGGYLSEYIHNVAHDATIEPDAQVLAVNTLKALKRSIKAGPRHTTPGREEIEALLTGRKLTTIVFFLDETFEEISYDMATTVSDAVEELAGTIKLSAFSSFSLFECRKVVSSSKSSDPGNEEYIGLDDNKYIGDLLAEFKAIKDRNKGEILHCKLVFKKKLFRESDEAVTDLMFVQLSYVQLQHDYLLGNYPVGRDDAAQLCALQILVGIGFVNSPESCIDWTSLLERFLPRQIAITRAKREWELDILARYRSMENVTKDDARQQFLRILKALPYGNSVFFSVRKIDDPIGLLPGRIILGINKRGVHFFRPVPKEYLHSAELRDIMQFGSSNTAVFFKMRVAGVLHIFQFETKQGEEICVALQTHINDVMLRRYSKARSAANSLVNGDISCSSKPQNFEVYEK
The experiment is described as above.

These are yes or no findings as the source states them, for the method shown. Some results given as binding are weak or reduced against the parent protein; the word gives no strength.

B1: KIPK1_(303–934) (domain or fragment, UniProt Q9LFA2 303-934)
chain: NISSSAVDSEQKGKLDDAPNSGTENGKTVRKVTRMIPRPKQPKKKILLKKKLKIGVVSATYPTKDDEEIVPSLDSSANQLLCQRCHCSLKSTSIDDNPPSYTSSHNPKICTDSLSSVSNKEAHQGSDENSSGSCNVSQSSEADIVIMKQDVSSSNNSGIGAMVEKETENPTSSEKFEFSLSSKDSLGDYSRSTSISEESNLSRFSCGNKPHMSMDVRWEAIKHIKVQYGSLGLRHFNLLKKLGCGDIGTVYLAELIGTNCLFAIKVMDNEFLARRKKSPRAQAEREILKMLDHPFLPTLYAQFTSDNLSCLVMEYCPGGDLHVLRQKQLGRCFPEPAARFYVAEILLALEYLHMLGIIYRDLKPENILVREDGHIMLTDFDLSLRCAVNPTLVRSNSPPGKDPARISGPYNTSNCIQPFCITEPSCQVSCFSPRLSSNQQQGRKPKRGDHLSKTQQHLSRSLPQLVAEPTEARSNSFVGTHEYLAPEIIKGEGHGAAVDWWTFGVLLYELLYGKTPFKGYNNDETLANVVLQNLKFPDSPLVSFQAKDLIRGLLVKEPENRLGSEKGSVEIKRHPFFEGLNWALIRCAIPPELPDFYEYGGGPEAAADSPGGSNNRYLECKAIGDHLEFELF
As for B1, the binding entry in experiment [1] is “binds”.

B2: KIPK2_(277–948) (domain or fragment, UniProt Q9SJM3 277-948)
chain: PHMVIEDQLVEIDKHVTSLPSCSGSKVDTEELDKSIVSSARVKSEPTALSSGLKGKLDNFPGSGTEKSKLVSKVTRNIPRPKPRPKKKILLKKKLKIVVNSATKMVEEVDTSLEPSASQLLCQKCHCAVKSTSTENHPPSNTSHTTDKNVSIEADQESLASPRLIRIVKCNKEASKGSSDSCEVSDSGEAVIVMKQEVSPSNYSGKGDADEQIRANPTSSEKFDFSLSSKNSLGDYSSSTSMSEESNLSRFSCGNKPHMSMDVRWEAVKHVKLQYGSLGLRHFNLLKKLGCGDIGTVYLAELVGTNCLFAIKVMDNEFLARRKKTPRAQAERAILKMLDHPFLPTLYAQFTSDNLSCLVMEYCPGGDLHVLRQKQLSRCFSEPATRFYVAEILLALEYLHMLGVIYRDLKPENILVREDGHIMLTDFDLSLRCAVNPTLLRSTSPPEKDPARMSGPYSTSNCIQPLCIEPSCRVPCFSPRLLSTQARNQKPRKPKRPDLLTQQFRSLPQLVAEPTEARSNSFVGTHEYLAPEIIKGEGHGAAVDWWTFGVLLYELLYGKTPFKGYDNEETLSNVVYQNLKFPDSPLVSFQAKELIRRLLVKDPESRLGSEKGAAEIKRHPFFEGLNWALIRCAIPPELPDIYDNGATEATSPEGNNRYLECKAIGDHLEFEL
With B2, the binding entry in experiment [1] and in experiment [2] was “binds” in each case.

B3: KIPK1_(303–582) (domain or fragment, UniProt Q9LFA2 303-582)
chain: NISSSAVDSEQKGKLDDAPNSGTENGKTVRKVTRMIPRPKQPKKKILLKKKLKIGVVSATYPTKDDEEIVPSLDSSANQLLCQRCHCSLKSTSIDDNPPSYTSSHNPKICTDSLSSVSNKEAHQGSDENSSGSCNVSQSSEADIVIMKQDVSSSNNSGIGAMVEKETENPTSSEKFEFSLSSKDSLGDYSRSTSISEESNLSRFSCGNKPHMSMDVRWEAIKHIKVQYGSLGLRHFNLLKKLGCGDIGTVYLAELIGTNCLFAIKVMDNEFLARRKKSPR
In the case of B3, the binding entry in experiment [1] and in experiment [2] was “binds” in each case.

B4: KIPK2_(277–624) (domain or fragment, UniProt Q9SJM3 277-624)
chain: PHMVIEDQLVEIDKHVTSLPSCSGSKVDTEELDKSIVSSARVKSEPTALSSGLKGKLDNFPGSGTEKSKLVSKVTRNIPRPKPRPKKKILLKKKLKIVVNSATKMVEEVDTSLEPSASQLLCQKCHCAVKSTSTENHPPSNTSHTTDKNVSIEADQESLASPRLIRIVKCNKEASKGSSDSCEVSDSGEAVIVMKQEVSPSNYSGKGDADEQIRANPTSSEKFDFSLSSKNSLGDYSSSTSMSEESNLSRFSCGNKPHMSMDVRWEAVKHVKLQYGSLGLRHFNLLKKLGCGDIGTVYLAELVGTNCLFAIKVMDNEFLARRKKTPRAQAERAILKMLDHPFLPTLYA
As for B4, the binding entry in experiment [1] and in experiment [2] was “no binding” each time.

B5: KIPK1_(84–582) (domain or fragment, UniProt Q9LFA2 84-582)
chain: SAGPSRTTSPSKRIASMKKPGTPQSPRFVGLSDSVSLKQALRDRCISKASEMAAQKRLSKSAAASPRVSEADRIKSLYNQVSNESTSSRSGLVPVDKGKGSLVEIPLMPVNDKPSSSKSVPQRFEDPSNPISEPSQAGTSFGLQGVGNQTREIKLLHRSNKPGSCLSSGSGDYEIELDENVASPSTHAFVEDDVIEIDKHVTSLPSHSSKKVNATELDKNISSSAVDSEQKGKLDDAPNSGTENGKTVRKVTRMIPRPKQPKKKILLKKKLKIGVVSATYPTKDDEEIVPSLDSSANQLLCQRCHCSLKSTSIDDNPPSYTSSHNPKICTDSLSSVSNKEAHQGSDENSSGSCNVSQSSEADIVIMKQDVSSSNNSGIGAMVEKETENPTSSEKFEFSLSSKDSLGDYSRSTSISEESNLSRFSCGNKPHMSMDVRWEAIKHIKVQYGSLGLRHFNLLKKLGCGDIGTVYLAELIGTNCLFAIKVMDNEFLARRKKSPR
Consider B5, for which the binding entry in experiment [1] and in experiment [2] was “binds” throughout.

These data come from paper PMC4265151.
